# Reference: the supplement of paper PMC10681739
# The full ranking holds about 2,700 sequences; the median of “arbitrary fluorescence units” is about 4,100, and the highest 2% start at about 54,000. This is one part of the list.
# Target: T1, ETS1 (UniProt P14921)
# T1 sequence: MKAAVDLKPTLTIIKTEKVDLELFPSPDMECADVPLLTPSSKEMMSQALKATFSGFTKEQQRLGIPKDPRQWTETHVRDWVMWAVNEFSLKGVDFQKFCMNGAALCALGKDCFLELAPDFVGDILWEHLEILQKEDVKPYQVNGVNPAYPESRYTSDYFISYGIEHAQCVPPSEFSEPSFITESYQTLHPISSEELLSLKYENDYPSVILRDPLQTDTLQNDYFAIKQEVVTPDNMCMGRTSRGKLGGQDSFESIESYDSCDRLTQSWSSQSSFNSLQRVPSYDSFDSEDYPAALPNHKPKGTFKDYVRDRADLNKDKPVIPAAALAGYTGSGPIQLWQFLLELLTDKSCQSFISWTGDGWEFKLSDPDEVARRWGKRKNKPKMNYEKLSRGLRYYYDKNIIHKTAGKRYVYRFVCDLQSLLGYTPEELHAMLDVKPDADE
# Assay: ETS1 binding intensity (PBM fluorescence) (arbitrary fluorescence units); higher = stronger binding
# Settings: ETS1 concentration 10 nM
# Protocol: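 gcPBM on wild-type 36-bp genomic probes with two neighbouring ETS1 sites (4-24 bp apart). Recombinant human ETS1 (10 nM) was detected with anti-ETS1 antibody fluorescence. Values are medians over 3 replicate spots. The probes sit in constant array flanks that are not printed.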
row,Sequence,ETS1 binding intensity
1,GCTCCGTGGAGGAGGAAACATCCTGCTTGTTTTTCA,3420
2,ACCATCTCATTTCCCCTTACAACTTCCTGAGGTGCA,4670
3,GCCCGAGCCGCTTCCGGGTACTTCCGGCGGCCGCGG,39600
4,GGGCGGAAAGCAGGAAGTCGATCCCGCGGGCGCGGC,11200
5,TAGACGGACAGGAAACAGCAGAGGAAATGGCTGCTG,4870
6,ACATAAAGGAAGTGGCATCTGAGAGCTTCCGGCACG,7130
7,ACACACAGGAAGCTAATAACTAGACAGGAATGCTGA,4960
8,GGCAACGAGGAAGCGGGGCCCGCCGGAAAAGGCGGG,474
9,AGAGAGGAAGCTGAGAAAGCAGCTCCAGGAAGTGGC,648
10,GTAACAGGAAGAAAATAATTTACCACATCCTTTATT,975
11,CCGAAGGAAGCAGCTGATTGAGTTCTCATCCTGCCT,188
12,GCACCAGGAAGTCCCCTTGCCTAGGTTTCCTCTCCT,2030
13,AGCCTTTGTATTTCCTTTCAGAGGAAACCCCAATGC,5570
14,ACAGCTTCCGGCGTGCTCCGCAACAGCTTCCGGCGT,50500
15,ATTCACCCCAGGAAAGACAAGCGGAAGAACCACTCA,261
16,TGTGGCTTCCTGTGTCTGGTGCCATCAGGAAGTAGC,27900
17,AAGTCAGGAAACAACAGATGCTGCAGAGGATGTGGA,370
18,ACCGCTCAAGACCGGAAGCGGAAATGGAATCGAGAT,24100
19,GAGCGGAAGTGGAAAAGACTAACTTCCGGCCTCGGG,30600
20,CGAGACTTCCTCTTTGACTCAACCACTTCCTATAAG,20600
21,AAACAAAACCCACAGGAAGGAAGCCAGCGAAGGAGA,382
22,GAAAGCCGGAAAGGTTTTACGCAACAGGAACTCAAG,757
23,CGAGGCTCGTTCCGGTAGCGGGAGGAAGACTGGAGG,1690
24,TGGGCCTCCAGGAAGCCTGGGGAGGATGTAGGCAGA,288
25,CTGCCTGGAGGAAGTTACACTCCATCCGCATGAGTG,834
26,GGTTTCCTCTTACTGGAATTTCCTCCCGCCCTCCCT,6510
27,TCATTGTGTGCTTCCTCTTTCAGGAAGGGCTGCCTT,2740

row,Sequence,ETS1 binding intensity
1,ACATTCAGGCATTTCCTTACATCCTCTGAAATCTGG,2070
2,CCCAAGGAAATCTGCCTCCAATAAACCAGGAAATGT,181
3,GGCAGCCATCCGCAGGGTCAGCGCCATCCTGTGCAG,392
4,GCCTAGGAAGTGACTTAAAAGGCTGTCAGGAAACGC,1420
5,AAATTGCTTCCTGAACTGACCCTGCCGGAAACCCGT,5210
6,CCAGCTCATTTCCTGCCATTGCCCTTCCTGCACCCT,29600
7,GTGCTGCGCTGTTCCGGGCCCGGATGGTTACCGTCC,325
8,GTTCCCTGTATTTCCTGTAGATTTCCTGCATACCTT,13800
9,ACTCCGGAAACATTCAAAATAGTCTCCCTTCCTCAG,2820
10,CGCCGCGTCAACTTCCGGGCGGATGCCCGCCAGCAC,23700
11,CGCCATCTTCCGCTCCACTAGCGTGTTCCGGGCGGT,7100
12,TCTTTTCAGTGTTTCCGGCTAGGAAATTTAAATGTT,18000
13,CCAGCCACTGCATCCGGCGGCCGGATCTAACTTACC,16700
14,CTAGTTTTGCATCCTGTGGCAACTTCCTGCTAGAAT,11900
15,CTCTGCCCAGGAAAACGGAGGGCAGGAAACGTCTCC,444
16,AAATTGGCAAGGAAATGAGCCCAGGAAGTAAGTTGG,913
17,GAAGTCTTTGCACTTCCGTCTTCCGGGCGGAGGCCA,10500
18,TTCTATGGCTCCATCCTGCTTTCCGGCTGTCGCCCT,1620
19,TCACCCTCCAGGATGGCTGCTCCATCCTGTGCCCTC,273
20,CAACAGGAAATACATACCTGTCCTGAGAGGAAGCAC,7320
21,GCTCCGCCCCCGGAAGCCTCACTTCCGGGCGCGAGC,25300
22,TTTGAAGGAAGTGGCCTGGGCTGCGAAGGAAACATT,625
23,CCCAAAGACAGGATGAGGCTCCAGGAAAATGACTAA,762
24,ACCCTCACAGGAAGTCGCACCTGAGGAAATCATCAC,9450
25,CCGTACGGAAGTGTGCTTTGGCGCACCGGAAGCCGA,8500
26,CTTCGCCTTCCGCTGTGAATAATAGCTTCCTGAGGC,10100
27,CTTTTTTCCGCTCTTCTCCCTCCTGCAGGAAACAGC,6640

row,Sequence,ETS1 binding intensity
1,GTCCCACTGGAGAGGAAGGGGAAGTGGAGTCATAGG,277
2,CACCACATCCTCCTGTTTCAGGCACAGGATACCCTC,7700
3,GCCCAGGAAGCGAGAGCGCCGCCCACCCATCCGGGG,650
4,CCTGACGCATTTCCTGCCGGGGCTTCCGGGGCACCG,35400
5,CGCTGCCGGAATTCGTCTTGCCTGACGGAAGCTGGG,517
6,AAACAGGAAGAGAGAAATGTAGAAAACAGGATGAAT,717
7,TCACACTGCGTGCATCCTGTTTCCTGTCGACAGTGG,17800
8,GTAGAGGATGCTCCCCTCCGGCCGCCGCGGAAGCCG,269
9,ATGTGGTGCCGCAGGAAGCGGAAGCCCAGCAGCGTG,1440
10,CTCTGTGACTTCCTGGAGACTCACTTCCTAGATGAG,11300
11,TACTAAAGCATCCGCCCTCAGTCCTTCCTGAGGGCT,6830
12,GCCGTTCACTTCCGCCACCAGCCGGAAGTTTTCTGT,33000
13,TTCCCTTCCTGAGCCTGCTGAGATGCAGGAAGTAAA,1330
14,GAGAGGGAGGAAGGCTCAGAGGCAGGAAGAGGAGGA,282
15,GACCGGATGTGGTTGTGGCTGAGGTCAGTTCCGGCG,21200
16,ACGTCATCCGGCCACCCCGGCACGCGCCGGAAGTGC,16900
17,TGCGACATATTTTCCGGAGTCCGGAAGCAGCTACTG,2400
18,AAGACTTCTACTTCCGGAGACTTCCTCATGCCATGC,33400
19,GAAAGAACATCCTGTGCCCGTCGCCGGATGCGCGCG,25700
20,GTCCCAGGAAGCAACGCGTGTCCGTTTTCCGGGCGC,1150
21,GAATTCGAGTTCCGCCTCCTACCAGGAAGAACCGGC,1950
22,GCCCCGGAAGCGACGGCTTCGCTGCCCCGGAAGTGG,10100
23,TGATGCCACCACTTCCTCACTTCCTGTAGCCACACA,17400
24,AGAAAGTACTTCCTGGATTGTCCAGGAAGTAGTCCT,19100
25,GACAGGAAGTAGCTGACACTCCATGCCAGGAAGTAG,13600
26,GGGGACCGGAAGCCAGCGGCAACAACTTCCGGCGGG,23100
